Measured values: article PMC2289542 (The Journal of Cell Biology, 1992)
Values joined by “and” are separate entries in the source; they are usually repeats but may differ in a detail not shown here. Identical values can stand only once.

How the values were obtained:
cross-linking [1] = target: the molecule itself; test: cross-linking
electron microscopy = target: the molecule itself; test: electron microscopy
cross-linking [2] = target: the molecule itself; test: cross-linking; remark: listed apart in the source
cross-linking [3] = target: the molecule itself; test: cross-linking; remark: listed apart in the source

B1: tau construct K11 (domain or fragment)
chain: not shown
stoichiometry N (cross-linking [1]): ≥ 2
stoichiometry N (electron microscopy): 4 and 2

B2: tau construct K12 (domain or fragment)
chain: not shown
stoichiometry N (cross-linking [2]): ≥ 2
stoichiometry N (cross-linking [3]): 2
stoichiometry N (electron microscopy): 4
